{"source": "PubChem BioAssay AID588342", "about": "(National Center for Advancing Translational Sciences (NCATS), 2011)", "note": "The campaign covered roughly 360,000 compounds. About 25,000 (6.9%) were called active. The inconclusive results got no clear call from the source; some entries with a clear call stand among them for comparison. Calls follow the shape of the dose curve; as a rule, active = well fitted inhibition curve with a large enough effect; inconclusive = small, poorly fitted or top-dose-only effect; inactive = flat fitted curve, though single readings scatter. Potencies beside an inconclusive call are fits to weak or partial responses and may not hold up. Potency is read from the fitted curve at half-maximal effect; tags tell the direction and shape of the fitted curve.", "data": [{"molecular_target": "Luciferin 4-monooxygenase (Photinus pyralis) (UniProt P08659)", "sequence (P08659 whole entry, looked up)": "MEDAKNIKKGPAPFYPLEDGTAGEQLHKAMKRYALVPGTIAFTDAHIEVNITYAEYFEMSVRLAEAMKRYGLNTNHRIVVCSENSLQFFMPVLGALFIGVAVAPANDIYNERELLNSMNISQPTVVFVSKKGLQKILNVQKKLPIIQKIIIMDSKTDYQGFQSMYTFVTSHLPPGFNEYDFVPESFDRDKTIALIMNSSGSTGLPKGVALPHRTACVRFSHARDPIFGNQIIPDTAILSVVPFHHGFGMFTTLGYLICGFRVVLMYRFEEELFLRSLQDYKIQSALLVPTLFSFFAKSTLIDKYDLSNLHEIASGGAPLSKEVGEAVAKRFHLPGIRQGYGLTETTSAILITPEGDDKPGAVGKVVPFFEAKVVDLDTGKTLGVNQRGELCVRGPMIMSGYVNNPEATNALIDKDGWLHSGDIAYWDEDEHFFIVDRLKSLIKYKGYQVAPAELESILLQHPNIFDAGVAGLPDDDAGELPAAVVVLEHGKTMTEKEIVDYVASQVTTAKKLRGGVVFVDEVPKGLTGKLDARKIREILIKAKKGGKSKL", "test": "qHTS profiling assay for firefly luciferase inhibitor/activator using purifed enzyme and Km concentrations of substrates (counterscreen for miR-21 project); also: nearly all actives have a fitted effect of over 55% in size", "details": "purified FLuc, luminescence inhibition; series mostly up to 57.5 µM", "procedure,_shortened": "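Purified P. pyralis luciferase (10nM final) with 10uM D-luciferin and 10uM ATP (Km levels) in 50mM Tris acetate pH 7.5, 10mM Mg acetate, 0.01% Tween-20, 0.05% BSA; qHTS 6-point titration, ~60 µM downward; luminescence read.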", "values": [{"smiles": "CC(C)CC(OC(=O)c1ccco1)C(=O)NC1CCCC1", "note": "(centres undefined)", "Potency": "inactive"}, {"smiles": "CC(=O)Nc1cnc(NC(=O)c2cccc(F)c2)cc1C", "Potency": "active: 30.1 µM"}, {"smiles": "O=C(O)COc1ccc2c3c(c(=O)oc2c1)CCC3", "Potency": "inconclusive: 37.9 µM [inhibitor, partial curve, poor fit]"}, {"smiles": "O=C(NNC(=O)c1ccc(-c2ccccc2)cc1)c1ccccc1", "Potency": "inconclusive: 8.49 µM [inhibitor, partial curve, poor fit]"}, {"smiles": "O=C(NC(=S)Nc1ccc(N2CCOCC2)cc1)c1ccco1", "Potency": "inconclusive: 26.9 µM [inhibitor, single point]"}, {"smiles": "Cc1ccc2nc(NC(=O)COC(=O)CSc3nc(C)cc(C)n3)sc2c1", "Potency": "inconclusive: 30.1 µM [inhibitor, partial curve]"}, {"smiles": "O=C(CSCc1ccc(Cl)cc1)Nc1ccc2c(c1)OCO2", "Potency": "inconclusive: 21.3 µM [inhibitor, partial curve, poor fit]"}, {"smiles": "CCc1nnc(NC(=O)c2cc(-c3ccccn3)nc3ccccc23)s1", "Potency": "inconclusive: 26.9 µM [inhibitor, partial curve, poor fit]"}, {"smiles": "S=C(Nc1ccc2nccnc2c1)N1CCOCC1", "Potency": "inconclusive: 33.8 µM [inhibitor, partial curve, poor fit]"}, {"smiles": "Oc1ccc(/C=N/NC(=S)NC2CC3CCC2C3)cc1", "note": "(centres undefined)", "Potency": "inconclusive: 26.9 µM [inhibitor, partial curve, poor fit]"}, {"smiles": "Oc1ccc(-c2nc3ccccc3s2)c(O)c1", "Potency": "active: 6.01 µM"}, {"smiles": "CCCCn1nnc(NC(=O)c2cc3ccccc3o2)n1", "Potency": "inconclusive: 8.49 µM [inhibitor, partial curve]"}, {"smiles": "O=C(c1cc(-c2ccccc2O)on1)N1CCc2ccccc2C1", "Potency": "inconclusive: 23.9 µM [inhibitor, single point]"}, {"smiles": "N#CC(C#N)=Cc1ccccc1OCc1ccccc1", "Potency": "inconclusive: 26.9 µM [inhibitor, partial curve, poor fit]"}, {"smiles": "O=C(/C=C/c1ccccc1Cl)Nc1cccc(S(=O)(=O)NC2=NCCCCC2)c1", "Potency": "active: 1.2 µM"}, {"smiles": "COc1ccc(C(CNC(=O)c2ccco2)N2CCCC2)cc1", "note": "(centres undefined)", "Potency": "inconclusive: 26.9 µM [inhibitor, partial curve]"}, {"smiles": "O=C(N/N=C/c1cccc(Br)c1)c1ccc(N2CCCC2=O)cc1", "Potency": "inconclusive: 13.5 µM [inhibitor, partial curve]"}, {"smiles": "O=C(COC(=O)C1CCC1)c1c[nH]c2ccccc12", "Potency": "active: 10.7 µM"}, {"smiles": "Oc1ccccc1-c1nnc(SCCN2CCOCC2)n1Cc1ccccc1", "Potency": "inconclusive: 26.9 µM [inhibitor, partial curve, poor fit]"}]}]}
